The source of these data is PubChem BioAssay AID651582 (Sanford-Burnham Center for Chemical Genomics, 2012).

The list shows a part of the results. Shown are side measurements of this screen, not its main read-out; they come without a call. Most of these compounds were active or inconclusive in the main read-out, so they are no random draw.

The experiment can be described thus: inhibitors of triacylglycerol accumulation, primary screen, cell-based, uHTS, fluorescence, H9c2 (AID 651582). To be noted: H9c2 cells, Nile Red lipid (TAG) fluorescence; measured here:; at 12.5 µM; cells loaded with 200 µM oleic acid.
For the compound `COCCS(=O)(=O)N(Cc1ccc(Br)cc1)[C@@H](C)C(=O)OC`, the DAPI nuclei signal change (viability), lower = more cytotoxic is -39.7%. With `COc1ccccc1NC(=O)c1ccccc1S(=O)(=O)c1ccc([N+](=O)[O-])cc1` the figure was -34.8%; with `COc1cccc(-c2cc(=O)c3cc(NC(C)=O)ccc3[nH]2)c1`, -31.2%.

Turning to `O=C(Nc1ccncc1)C1CCCN(S(=O)(=O)c2cccc3cccnc23)C1` (stereo not given), the DAPI nuclei signal change (viability), lower = more cytotoxic was -43.4%.

For the compound `O=c1c2c3nc4ccccc4nc3n(/N=C/c3ccccn3)c2ncn1-c1ccccc1`, the DAPI nuclei signal change (viability), lower = more cytotoxic is -11.2%. Consider `COc1cc2c(cc1NC(=O)Nc1cccc(C)c1)oc1ccccc12`, for which the DAPI nuclei signal change (viability), lower = more cytotoxic stood at 1.46%. With `Oc1cc(-c2cccnc2)cc2cccnc12` the figure was -49.6%; with `COc1ccc([C@H]2CC(=O)C=C(c3ccc(OC)cc3OC)C2)cc1`, -40.2%; with `COc1cc(CNc2ccc(N3CCCC3)cc2)cc(Cl)c1OC`, -5.56%. `COc1cccc2sc(Nc3nc(-c4ccncc4)cs3)nc12`: the DAPI nuclei signal change (viability), lower = more cytotoxic is -12.8%.

As to `C=C(C)c1cccc(C(C)(C)NC(=O)N2CCC(C(N)=O)CC2)c1`, the DAPI nuclei signal change (viability), lower = more cytotoxic is -39.8%. In the case of `O=C(NCCc1c[nH]c2ccccc12)C1CCC(Cn2c(=S)[nH]c3ccccc3c2=O)CC1` (stereo not given), the DAPI nuclei signal change (viability), lower = more cytotoxic worked out at 2.53%. The result for `CCn1cc([N+](=O)[O-])c(C(=O)N2N=C(c3ccc4ccccc4c3)CC2c2ccccc2O)n1` (stereo not given) reads -7.16%. The result for `COC(=O)C1=C(C)N(Cc2ccccc2)C(=NCc2cccc(Cl)c2)N[C@H]1c1cccc(F)c1` reads -47.6%; that for `COc1ccc(NC(=O)C2(C)Cc3c(-c4cccc(C(N)=O)c4)ccnc3O2)cc1` (stereo not given), -33.4%; that for `COc1ccc2nc3cc(Cl)ccc3c(Nc3ccc(O)c(CN4CCN(C)CC4)c3)c2c1`, -27.8%. The result for `Nc1ncnc2c1ncn2[C@@H]1O[C@H](CNCc2cn(CC(=O)NC3CC3)c3ccccc23)[C@@H](O)[C@H]1O` reads -48.5%; that for `CC(C)CNS(=O)(=O)c1ccc(CCC(=O)Nc2cc(Cl)ccc2Oc2ccccc2)cc1`, -7.49%. As for `CCCCCc1cc(=O)oc2c(C(CCN3CCCCC3)c3ccc(OC)cc3)c(OC)cc(OC)c12` (stereo not given), the DAPI nuclei signal change (viability), lower = more cytotoxic is -30.4%.

`CCC(C)(C)NC(=O)C(c1cccn1C)N(Cc1ccc(OC)cc1)C(=O)Cn1nnc2ccccc21` (stereo not given): the DAPI nuclei signal change (viability), lower = more cytotoxic was -4.05%. With `N=c1n(CC(=O)c2ccc(Br)s2)c2ccccc2n1Cc1ccccc1` the figure was -6.57%. The result for `CCn1c(COc2ccc(C(C)C)cc2)nnc1SCC(=O)Nc1nccs1` reads -5.31%; that for `COc1ccc(C(C(=O)NC(C)(C)C)N(Cc2ccco2)C(=O)CCC(=O)Nc2cc(C)on2)cc1` (stereo not given), 18.9%; that for `CCOC(=O)c1cnc2ccc(OCC)cc2c1N1CCN(c2ccccc2)CC1`, 4.99%.

For the compound `O=C(COc1ccc(Cl)cc1Cl)NN=C1c2ccccc2-c2ccccc21`, the DAPI nuclei signal change (viability), lower = more cytotoxic came out at 22.6%. With `C[C@H]1CN([C@@H](C)CO)C(=O)c2cc(NC(=O)Nc3cccc4ccccc34)ccc2O[C@@H]1CN(C)Cc1ccc(-c2ccccc2)cc1` the figure was -0.226%; with `COc1cc(OC)c2c(-c3ccccc3)cc(=O)oc2c1C(CCN1CCCC(C)C1)c1ccc2c(c1)OCO2` (stereo not given), -31.6%; with `COc1ccc(-c2noc(-c3ccccc3C(=O)Nc3cccnc3)n2)cc1`, -25.4%.

Consider `CC(C)(C)c1ccc(C(=O)NNc2cc(N3CCCCC3)nc(N3CCCCC3)n2)cc1`, for which the DAPI nuclei signal change (viability), lower = more cytotoxic is -7.07%. With `CC(=O)OCC(=O)[C@@]12OC3(CCCC3)O[C@@H]1C[C@H]1[C@@H]3CCC4=CC(=O)C=C[C@]4(C)[C@@]3(F)[C@@H](O)C[C@@]12C`, the DAPI nuclei signal change (viability), lower = more cytotoxic is 4.2%. With `O=C1/C(=N\S(=O)(=O)c2cccs2)C([n+]2cccc(Cc3ccccc3)c2)=C([O-])c2ccccc21` the figure was -25.6%. With `O=c1c(Cl)c(Cl)cnn1Cc1nnc(-c2ccc(Cl)cc2)o1` the figure was -17.5%.

Take `CCOc1ccc2nc(NC(=O)CN3CCN(C)CC3)sc2c1`: the DAPI nuclei signal change (viability), lower = more cytotoxic is -12.8%. Turning to `Cc1cc(C)c2sc(N(CCCN(C)C)C(=O)c3ccc(S(=O)(=O)N4CCc5ccccc5C4)cc3)nc2c1`, the DAPI nuclei signal change (viability), lower = more cytotoxic is -42.3%. Regarding `O=c1c(Cl)c(Cl)cnn1-c1ccccc1`, the DAPI nuclei signal change (viability), lower = more cytotoxic is -25.4%. With `CN(C)CCCN(C(=O)c1ccc(S(=O)(=O)N2CCc3ccccc3C2)cc1)c1nc2ccc(F)cc2s1` the figure was -33.1%.

Turning to `CSc1ccc(C2=C/C(=C3/SC(=S)NC3=O)c3ccccc3O2)cc1`, the DAPI nuclei signal change (viability), lower = more cytotoxic is -4.07%. In the case of `CCC(C)(C)c1ccc(OCCCC[n+]2ccccc2)c(C(C)(C)CC)c1`, the DAPI nuclei signal change (viability), lower = more cytotoxic was -10.6%. Regarding `O=C(/C=C/Sc1ccc(C(F)(F)F)cn1)c1ccccc1`, the DAPI nuclei signal change (viability), lower = more cytotoxic was -18.9%.

Take `Cc1c(C(=O)OCC(C)C)[nH]c2c1C(=O)CC(c1cccs1)C2` (stereo not given): the DAPI nuclei signal change (viability), lower = more cytotoxic is -28.8%. The result for `Cc1ccc2c(c1)Oc1ccc(NC(=O)CCl)cc1C(=O)N2` reads -48.4%; that for `COc1ccc(NC(=O)Cn2c(-c3ccccc3)cn(-c3ccc(C)cc3)c2=O)cc1`, -6.36%.

In the case of `O=C(Nc1cccc2ncccc12)c1ccc(Cl)cc1`, the DAPI nuclei signal change (viability), lower = more cytotoxic was -11.8%. Turning to `CC(C)(C)OC(=O)[C@H](Cc1ccccc1)NC(=O)c1ncn2c1c(=O)[nH]c1ccc(Br)cc12`, the DAPI nuclei signal change (viability), lower = more cytotoxic is -19.8%. For `COC(=O)CC1C(=O)NCCN1C(=O)c1ccc(S(=O)(=O)N2CCOCC2)cc1` (stereo not given), the DAPI nuclei signal change (viability), lower = more cytotoxic was -42.5%.
